A number of entries come with more than one value. The other results are left out here.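 How the source made its calls: active means CXCR6 IC50 under 10 µM and IC50 at the unrelated APJ receptor at least five times higher; inactive means the rest.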 The source may hold further records. Values given together are repeats (runs, samples, wells, individuals or studies). A tag in brackets gives the origin of a value. The letters are not those of the source and start again with each entry.
Target: C-X-C chemokine receptor type 6 (Homo sapiens) (UniProt O00574)
Sequence of UniProt O00574 (O00574 whole entry, looked up): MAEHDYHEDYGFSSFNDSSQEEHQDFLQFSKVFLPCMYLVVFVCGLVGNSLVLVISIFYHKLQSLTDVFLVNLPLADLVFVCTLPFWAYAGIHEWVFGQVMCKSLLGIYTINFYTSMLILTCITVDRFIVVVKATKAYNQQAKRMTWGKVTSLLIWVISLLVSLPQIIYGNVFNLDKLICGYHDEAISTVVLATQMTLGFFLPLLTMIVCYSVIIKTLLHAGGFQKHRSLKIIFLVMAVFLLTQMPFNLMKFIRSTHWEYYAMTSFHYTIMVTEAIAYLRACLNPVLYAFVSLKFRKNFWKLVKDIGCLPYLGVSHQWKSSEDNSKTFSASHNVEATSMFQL
Experiment: apelin receptor (APJ) antagonists, SAR follow-up, counter-screen for CXCR6 antagonist project, cell-based, beta-arrestin, DiscoveRx, panel, CHO-K1 (AID 651598)
Settings: CHO-K1 PathHunter beta-arrestin luminescence, antagonist mode, mean of runs

Row | Structure (SMILES) | IC50
1 | COc1cc(C(=O)NC2CC3CCC(C2)N3CC(=O)Nc2ccccc2)cc(OC)c1OC (configuration not stated) | inactive [sample A] and inactive: > 80 µM [sample B]
2 | COc1cc(C(=O)NC2CC3CCCC(C2)N3CC(=O)Nc2ccccc2)cc(OC)c1OC (configuration not stated) | 6.08 µM [sample A] and inactive [sample B] and inactive: > 80 µM [sample C]

Source: PubChem BioAssay AID651598 (Sanford-Burnham Center for Chemical Genomics, 2012)
